Drawing on the supplement of paper PMC9446081, this text covers relative growth for 39 molecules.

Structures are written as SMILES. In all, about 39,000 compounds went through this assay and about 220 (0.56%) showed activity. Some of the results follow.
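Note: static incubation at 37 °C against the wild-type strain, values averaged over two biological replicates.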

The experiment concerns Escherichia coli K-12 BW25113. As to the kind of experiment: relative growth (OD600 normalised to plate interquartile mean) (fraction); higher = less growth inhibition, active = 0.2 or less. Conditions: 50 µM; LB; incubation time: overnight (16-24 h).
For the molecule `C=CCOC(=O)[C@@H]1[C@H]2C(=O)O[C@H](c3ccccc3)[C@H](c3ccccc3)N2[C@H](c2ccc(OCCOC(=O)[C@H]3C[C@H]4C(=O)N[C@@H](CC(C)C)C(=O)N4[C@H]3c3cccc(OCCO)c3)cc2)[C@@]12C(=O)Nc1ccccc12`, the relative growth was inactive: 1.07.

Regarding `COCC#Cc1cnc2c(c1)C(=O)N([C@@H](C)CO)C[C@H](C)[C@@H](CN(C)C(=O)Nc1ccccc1OC)O2`, the relative growth is inactive: 1.

Consider `COCC#Cc1ccc([C@H]2[C@H](CO)N3C(=O)CN(C(=O)CN4CCOCC4)C[C@@H]23)cc1`, for which the relative growth was inactive: 0.989.

Regarding `C[C@H](CO)N1C[C@H](C)[C@@H](CN(C)C)Oc2ccc(NS(=O)(=O)c3ccc(Cl)cc3)cc2CC1=O`, the relative growth was inactive: 0.991.

`C[C@@H]1CN([C@@H](C)CO)C(=O)c2cccc(NC(=O)Nc3ccccc3)c2O[C@H]1CN(C)Cc1ccc(C(=O)Nc2ccccc2N)cc1`: the relative growth is inactive: 0.999.

`CC12C=CC(=O)C=C1CCC1C2C(O)CC2(C)C1CCC2(O)C(=O)COP(=O)([O-])[O-].[Na+].[Na+]` (centres undefined): the relative growth was inactive: 1.07.

`Cc1noc(C)c1NC(=O)N(C)C[C@@H]1Oc2cc(C#CCN(C)C)ccc2S(=O)(=O)N([C@H](C)CO)C[C@@H]1C`: the relative growth is inactive: 0.976.

Consider `Cc1noc(C)c1NC(=O)N(C)C[C@H]1Oc2ccc(NC(=O)Nc3cccc4ccccc34)cc2CC(=O)N([C@@H](C)CO)C[C@@H]1C`, for which the relative growth was inactive: 1.

Regarding `COc1ccc(-c2csc(CCN)n2)cc1`, the relative growth is inactive: 0.94.

Turning to `CC1=CC(=O)[N-]S(=O)(=O)O1.[K+]`, the relative growth was inactive: 0.905.

As for `C[C@@H]1CN([C@H](C)CO)C(=O)c2cc(C#CC3CCCCC3)cnc2O[C@@H]1CN(C)C(=O)c1ccncc1`, the relative growth was inactive: 1.03.

As to `Cc1noc(C)c1S(=O)(=O)Nc1ccc2c(c1)CC(=O)N([C@@H](C)CO)C[C@@H](C)[C@@H](CN(C)Cc1ccc(C(=O)O)cc1)O2`, the relative growth is inactive: 0.998.

For `O=C(/C=C/c1cccc(-c2cn(-c3ccc(C[C@H]4C(=O)O[C@@H](Cc5ccccc5)[C@H]5[C@@H]6C=CCCC=C6CN54)cc3)nn2)c1)NO`, the relative growth is inactive: 0.989.

Take `O=C(CCCCCNC(=O)OCc1ccc(CO[C@H]2C[C@@H](c3ccc(C(F)(F)F)cc3)C=C(C(=O)NC3CC3)O2)cc1)NO`: the relative growth was inactive: 0.94.

In the case of `C[C@H](N)C(=O)N[C@@]1(C(=O)O)C[C@@H](Sc2nnc[nH]2)[C@H]2[C@H](C(=O)O)[C@H]21`, the relative growth was inactive: 0.993.

For the molecule `C[C@@H]1CN([C@@H](C)CO)C(=O)c2cc(NS(=O)(=O)c3ccc(Cl)cc3)ccc2O[C@@H]1CN(C)Cc1ccc(C(=O)Nc2ccccc2N)cc1`, the relative growth is inactive: 1.01.

In the case of `O=C(CN1CCOCC1)NCC[C@H]1CC[C@H](NS(=O)(=O)c2ccc(F)cc2)[C@H](CO)O1`, the relative growth was inactive: 0.976.

On to `CCS(=O)(=O)Nc1ccc2c(c1)C(=O)N(C)[C@@H]1CC[C@H](CC(=O)N[C@H]3CCN(Cc4ccccc4)C3)O[C@H]1CO2`, for which the relative growth was inactive: 1.02.

For `COc1ccc(NC(=O)Nc2ccc3c(c2)CC(=O)N([C@H](C)CO)C[C@@H](C)[C@H](CN(C)C(=O)Nc2cccc4ccccc24)O3)cc1`, the relative growth was inactive: 0.965.

In the case of `O=C(C[C@@H]1CC[C@H]2[C@@H](COC[C@H](O)CN2C(=O)Nc2ccc(C(F)(F)F)cc2)O1)NCc1ccncn1`, the relative growth is inactive: 1.

Take `C[C@H]1CN([C@@H](C)CO)C(=O)c2cc(NS(=O)(=O)c3ccc(Cl)cc3)ccc2O[C@@H]1CN(C)Cc1ccc(-c2ccccc2)cc1`: the relative growth is inactive: 0.858.

As to `C[C@H](CO)N1C[C@H](C)[C@@H](CN(C)Cc2ccc(Cl)c(Cl)c2)Oc2ccc(NC(=O)NC3CCCCC3)cc2C1=O`, the relative growth is inactive: 0.996.

Turning to `CC(C)(C)C(=O)OCOP(=O)(COCCn1cnc2c(N)ncnc21)OCOC(=O)C(C)(C)C`, the relative growth is inactive: 1.15.

Regarding `Cc1ccc(S(=O)(=O)Nc2ccc3c(c2)C(=O)N([C@@H](C)CO)C[C@H](C)[C@H](CN(C)S(=O)(=O)c2ccc(F)cc2)O3)cc1`, the relative growth is inactive: 0.886.

In the case of `CO[C@H]1CN(C)C(=O)c2ccc(NC(=O)c3ccc(F)cc3)cc2OC[C@@H](C)N(C(=O)CN(C)C)C[C@@H]1C`, the relative growth is inactive: 0.986.

In the case of `C[C@H]1CCCCO[C@@H](CN(C)C(=O)C2CCCCC2)[C@@H](C)CN([C@@H](C)CO)C(=O)c2cc(NC(=O)c3ccncc3)ccc2O1`, the relative growth is inactive: 0.998.

`COc1ccc(S(=O)(=O)N(C)C[C@@H]2Oc3cc(-c4ccccc4OC)ccc3S(=O)(=O)N([C@@H](C)CO)C[C@H]2C)cc1`: the relative growth was inactive: 1.

As to `Cl.O=C1NCC2(CCN(CCc3ccccc3)CC2)O1`, the relative growth was inactive: 0.96.

As to `COc1ccccc1C#Cc1cnc2c(c1)C(=O)N([C@H](C)CO)C[C@H](C)[C@@H](CN(C)C(=O)CN(C)C)O2`, the relative growth was inactive: 1.01.

For the molecule `C[C@H](CO)N1C[C@H](C)[C@@H](CN(C)C(=O)NC2CCCCC2)Oc2c(NC(=O)Cn3cnnn3)cccc2C1=O`, the relative growth is inactive: 1.01.

Consider `C=C(/C=C\CNS(=O)(=O)c1ccc(C)cc1)[C@H](O)[C@H]1CCCN1S(=O)(=O)c1ccccc1[N+](=O)[O-]`, for which the relative growth is inactive: 1.03.

Consider `C[C@@H]1CN([C@@H](C)CO)S(=O)(=O)c2ccc(-c3cncnc3)cc2O[C@H]1CN(C)C(=O)c1cccc(F)c1`, for which the relative growth is inactive: 0.997.

Consider `O=C(N[C@H]1CC[C@H](CCNS(=O)(=O)c2ccccc2)O[C@@H]1CO)c1cnccn1`, for which the relative growth is inactive: 1.

Consider `N#C[C@H](c1ccccn1)N1CCOCC1`, for which the relative growth was inactive: 0.981.

As to `C[C@H]1CN([C@@H](C)CO)S(=O)(=O)c2ccc(C#Cc3ccncc3)cc2O[C@@H]1CN(C)C(=O)C1CCCCC1`, the relative growth is inactive: 1.02.

In the case of `CC(=O)OCO/N=[N+](\[O-])N1CCCC1`, the relative growth was inactive: 0.996.

Regarding `C[C@@H]1CCCCO[C@@H](CN(C)S(=O)(=O)c2ccc(Cl)cc2)[C@H](C)CN([C@@H](C)CO)C(=O)c2cc(NC(=O)c3ccccc3)ccc2O1`, the relative growth was inactive: 1.02.

On to `CC(C)NC(=O)N1Cc2cc(C(=O)NCC(F)(F)F)nc(-c3cccc(-c4cc5ccccc5o4)c3)c2[C@@H]1CCO`, for which the relative growth is inactive: 1.02.

As for `COc1ccc([Si](C)(C)[C@H]2[C@H](CC(=O)N3CCC[C@H]3CO)O[C@@]3(C(=O)N(Cc4ccc(N5C(=O)c6cccc7cccc5c67)cc4)c4ccccc43)[C@@H]2C)cc1`, the relative growth was inactive: 1.03.
